In the BET-seq Pho4 binding data (Le et al. 2018):
The other results are listed elsewhere or left out. These are noisy estimates, calculated here from bound and input reads.

What follows are sequences tested against T1, Pho4 (S. cerevisiae) (UniProt P07270) (assay: relative binding free energy (BET-seq); higher = weaker binding). Conditions: reference: library average.
T1 sequence: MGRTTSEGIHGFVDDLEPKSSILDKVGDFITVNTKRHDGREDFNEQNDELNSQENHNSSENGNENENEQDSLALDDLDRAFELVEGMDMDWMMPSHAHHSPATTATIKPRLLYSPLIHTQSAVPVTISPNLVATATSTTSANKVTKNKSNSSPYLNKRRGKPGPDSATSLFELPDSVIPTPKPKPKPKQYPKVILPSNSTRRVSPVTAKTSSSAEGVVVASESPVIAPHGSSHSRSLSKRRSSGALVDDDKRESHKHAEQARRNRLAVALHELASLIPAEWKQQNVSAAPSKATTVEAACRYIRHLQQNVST

Sequence | relative binding free energy
AATGGCACGTGCAGGG | -0.17 kcal/mol
GATGTCACGTGTTTTG | 0.24 kcal/mol
GTACGCACGTGGGGGA | -0.19 kcal/mol
CATTCCACGTGGTGGT | -0.05 kcal/mol
AGTATCACGTGGCTCG | 0.15 kcal/mol
AGTGACACGTGTGTCG | -0.03 kcal/mol
GCAATCACGTGTGTTG | 0.16 kcal/mol
GTGAGCACGTGTGCGA | -0.15 kcal/mol
ATGGCCACGTGTTAGT | -0.15 kcal/mol
TATAGCACGTGATGTA | -0.05 kcal/mol
TCATTCACGTGGGGTT | 0.01 kcal/mol
TTATCCACGTGGTTCT | 0.06 kcal/mol
AGTGTCACGTGATTCG | 0.12 kcal/mol
GTACACACGTGGTTAG | 0.03 kcal/mol
AAGAACACGTGGTTGT | -0.02 kcal/mol
GTTGACACGTGTCGGA | 0.04 kcal/mol
CATGACACGTGAGGTG | 0.33 kcal/mol
AGGGTCACGTGGCGCA | 0.03 kcal/mol
AGTTTCACGTGCAATG | 0.23 kcal/mol
ACTTGCACGTGAATGG | 0.18 kcal/mol
AGTAGCACGTGTGCTT | -0.09 kcal/mol
TGATGCACGTGACTGG | 0.03 kcal/mol
TAATTCACGTGTCGTT | 0.34 kcal/mol
CTTTTCACGTGGGTGC | 0.11 kcal/mol
GGGATCACGTGGGAAG | 0.18 kcal/mol
TGGGTCACGTGCATGG | 0.02 kcal/mol

Sequence | relative binding free energy
GGGTGCACGTGGACAG | -0.13 kcal/mol
GTAGGCACGTGCAGGC | -0.01 kcal/mol
GCTAGCACGTGGTGGT | -0.03 kcal/mol
TGGTTCACGTGGGTGA | 0.14 kcal/mol
GGCTTCACGTGGAGTG | 0.15 kcal/mol
TGATTCACGTGGGACA | 0.24 kcal/mol
AGTTACACGTGCGAGG | 0.03 kcal/mol
CTTAACACGTGAGGTG | 0.09 kcal/mol
CAGGGCACGTGGGCAG | -0.19 kcal/mol
AAGGGCACGTGTACAT | -0.06 kcal/mol
CGGGACACGTGTTCTG | 0.11 kcal/mol
TTTTTCACGTGGAGGA | 0.31 kcal/mol
TTTTGCACGTGTCTAT | -0.1 kcal/mol
TGATGCACGTGGCGAT | -0.16 kcal/mol
TAATGCACGTGAGGCA | 0.34 kcal/mol
ATGTGCACGTGAGTAT | 0.22 kcal/mol
ATAAGCACGTGTCTTG | 0.03 kcal/mol
GATGACACGTGGGCTT | -0.08 kcal/mol
CGTTGCACGTGGGTGA | -0.21 kcal/mol
GGGTTCACGTGATCGG | 0.4 kcal/mol
TAAATCACGTGATGTG | 0.21 kcal/mol
GTATGCACGTGGGTGG | -0.14 kcal/mol
AAATACACGTGGTGTA | -0.18 kcal/mol
ATGAACACGTGTCGTG | 0.03 kcal/mol
GTGAGCACGTGTGCTG | -0.12 kcal/mol
TTGTTCACGTGGGCTT | 0.23 kcal/mol

Sequence | relative binding free energy
GTGACCACGTGGTGTT | 0.03 kcal/mol
TATTACACGTGTTAGC | 0.1 kcal/mol
CTGTTCACGTGGTTAG | 0.31 kcal/mol
ATATGCACGTGGCGTG | -0.12 kcal/mol
GAGGCCACGTGGGGGC | -0.08 kcal/mol
CGAATCACGTGTGGGG | 0.25 kcal/mol
TGTAGCACGTGTTTTT | -0.08 kcal/mol
AGTGACACGTGATTGG | 0.24 kcal/mol
TTCTTCACGTGATAGG | 0.29 kcal/mol
TGATTCACGTGGGTCA | 0.15 kcal/mol
GTTGACACGTGGTCTA | -0.07 kcal/mol
GGTGGCACGTGTAACT | -0.02 kcal/mol
TTAGGCACGTGGGGGC | -0.23 kcal/mol
GGTAGCACGTGGGGTT | -0.13 kcal/mol
GTTGGCACGTGCTGGT | -0.09 kcal/mol
ATTGACACGTGTAGAT | 0.2 kcal/mol
TGATTCACGTGCTGGT | 0.22 kcal/mol
TAGGTCACGTGAGTTT | 0.3 kcal/mol
TTGGGCACGTGCGTTA | -0.17 kcal/mol
GGTGTCACGTGAGTAG | 0.3 kcal/mol
TATCACACGTGATTGT | 0.19 kcal/mol
AGTTACACGTGTGGGC | 0.15 kcal/mol
ATAGGCACGTGTGTCG | -0.16 kcal/mol
TTTGACACGTGCGTAT | -0.08 kcal/mol
TGTCTCACGTGTTGTC | 0.11 kcal/mol
TTTTACACGTGGGTCG | -0.05 kcal/mol

Sequence | relative binding free energy
TTGGTCACGTGGGATT | 0.15 kcal/mol
AGGTTCACGTGAGAGA | 0.56 kcal/mol
TTTTTCACGTGTTAGC | 0.35 kcal/mol
CGTCTCACGTGAAGGT | 0.37 kcal/mol
GTGTACACGTGGGTAT | -0.17 kcal/mol
CATGTCACGTGTGAAG | 0.19 kcal/mol
TTTTCCACGTGGGCTG | -0.15 kcal/mol
AGGCTCACGTGGGTGG | 0.05 kcal/mol
TCGTTCACGTGAGTGT | 0.18 kcal/mol
TTATACACGTGGAGAG | 0.09 kcal/mol
CAGGCCACGTGTTGGT | -0.01 kcal/mol
CGTGGCACGTGTCTTT | -0.07 kcal/mol
GAGTTCACGTGACGTG | 0.55 kcal/mol
CTGGGCACGTGGTGCT | -0.13 kcal/mol
TAATTCACGTGGATTA | 0.24 kcal/mol
CGTTGCACGTGGATTT | 0.08 kcal/mol
AGAGTCACGTGTAGTT | 0.21 kcal/mol
GGCCGCACGTGGTATG | -0.09 kcal/mol
GTATGCACGTGAAGAT | 0.2 kcal/mol
TGTTTCACGTGGGGGA | 0.18 kcal/mol
TGTAACACGTGGTTAG | -0.12 kcal/mol
AGTGTCACGTGCTATG | 0.02 kcal/mol
CGTTACACGTGTGTTA | 0.06 kcal/mol
GAAGGCACGTGTCGGA | -0.12 kcal/mol
AGCTGCACGTGTTGAT | 0.14 kcal/mol
GTAGTCACGTGATTAT | 0.22 kcal/mol

Sequence | relative binding free energy
TTTGGCACGTGTAATA | 0.05 kcal/mol
CTGGACACGTGGTCGT | -0.05 kcal/mol
ACGGGCACGTGTAGTT | -0.07 kcal/mol
GGCTGCACGTGCTTGT | -0.04 kcal/mol
AATTTCACGTGGGGGA | 0.19 kcal/mol
GTTTACACGTGCATGG | 0.26 kcal/mol
TGACTCACGTGGGTCT | 0.14 kcal/mol
AGAGACACGTGGCTGG | -0.04 kcal/mol
GTAGACACGTGTTTAA | 0.08 kcal/mol
CTAGGCACGTGAAGTG | 0.01 kcal/mol
TATCACACGTGTGGTC | 0.22 kcal/mol
GTGGGCACGTGCCTGT | -0.32 kcal/mol
TTAAGCACGTGGTTGA | -0.17 kcal/mol
GTCGTCACGTGCGTTG | 0.08 kcal/mol
CGTGTCACGTGGAGTA | 0.05 kcal/mol
TAGTTCACGTGGTACT | 0.1 kcal/mol
CTTTTCACGTGGGTCG | 0.09 kcal/mol
GTTTGCACGTGCGTGG | 0.07 kcal/mol
TTTGTCACGTGGAGTT | 0.11 kcal/mol
ATAATCACGTGCTTGT | 0.04 kcal/mol
TTGGGCACGTGTATTA | -0.07 kcal/mol
ATGTTCACGTGGGTGC | 0.07 kcal/mol
GGATGCACGTGAGGTT | 0.26 kcal/mol
AAAGGCACGTGCAGGG | -0.13 kcal/mol
AGGGTCACGTGCGTGC | -0.07 kcal/mol
TGGTGCACGTGATTGA | 0.14 kcal/mol

Sequence | relative binding free energy
AGGGGCACGTGTATCG | -0.1 kcal/mol
TTAGGCACGTGTGTGC | -0.05 kcal/mol
TATATCACGTGTGTAT | 0.15 kcal/mol
AGCTACACGTGATGGT | 0.24 kcal/mol
AATGGCACGTGTCGGT | -0.2 kcal/mol
GTTTACACGTGCAGGT | 0.17 kcal/mol
TGGTTCACGTGTCGGC | 0.33 kcal/mol
TGGGGCACGTGACGTT | 0.06 kcal/mol
CTGGGCACGTGATTTG | 0.06 kcal/mol
AGGGTCACGTGGGTCA | -0.04 kcal/mol
GACAGCACGTGTGGGT | -0.04 kcal/mol
ATTGACACGTGTGATT | 0.17 kcal/mol
TATGGCACGTGATTGC | -0.09 kcal/mol
TGCGTCACGTGAGCTG | 0.34 kcal/mol
GTGTACACGTGCGGCT | 0.07 kcal/mol
ATAAGCACGTGAGGGT | 0.2 kcal/mol
GTTCACACGTGAGTGA | 0.35 kcal/mol
ACAGTCACGTGTAGGT | 0.02 kcal/mol
AGTAACACGTGTGACT | 0.23 kcal/mol
AGGGTCACGTGTCCAG | 0.1 kcal/mol
AATGTCACGTGGGGTC | 0.02 kcal/mol
AAAAGCACGTGGATTT | -0.01 kcal/mol
GGTGACACGTGGGAGC | 0.03 kcal/mol
TTATACACGTGTATGG | -0.07 kcal/mol
TGAGGCACGTGGGAGG | -0.17 kcal/mol
TGAAGCACGTGAAATT | 0.27 kcal/mol

Sequence | relative binding free energy
AATAGCACGTGGGATA | -0.17 kcal/mol
ATTATCACGTGATGAT | 0.22 kcal/mol
TTAGTCACGTGCTGGA | -0.09 kcal/mol
AATAGCACGTGGTTTA | -0.07 kcal/mol
GGGAGCACGTGTGTCT | -0.16 kcal/mol
TGTAACACGTGAGTAG | 0.03 kcal/mol
AGTATCACGTGGGCGC | 0.03 kcal/mol
ATAAGCACGTGGGGGG | -0.23 kcal/mol
TCGAACACGTGTTGGT | 0.1 kcal/mol
GTTGGCACGTGATGGA | 0.01 kcal/mol
GGGCCCACGTGTTGTG | -0.08 kcal/mol
CTTGGCACGTGGGGAA | -0.13 kcal/mol
AGGCGCACGTGGGCAG | -0.3 kcal/mol
TTGAACACGTGGTGTT | -0.1 kcal/mol
ATTCGCACGTGTTTGT | -0.06 kcal/mol
TGTGACACGTGTATTA | -0.04 kcal/mol
ATTTGCACGTGTGGGT | -0.01 kcal/mol
AGAGGCACGTGGTTTA | -0.07 kcal/mol
ATGTTCACGTGCGGCT | 0.15 kcal/mol
TTGTGCACGTGCTCTG | -0.08 kcal/mol
TGAAACACGTGGAGGG | 0.07 kcal/mol
GGGGACACGTGAATCG | 0.34 kcal/mol
ATTCACACGTGGTAGT | -0.08 kcal/mol
AGGGTCACGTGTCGGC | 0.17 kcal/mol
CTCGGCACGTGGTTTG | -0.17 kcal/mol
TAGTCCACGTGAGTTG | 0.3 kcal/mol

Sequence | relative binding free energy
TGGGGCACGTGGAAGG | -0.05 kcal/mol
GGGGTCACGTGATAAA | 0.33 kcal/mol
AGTGCCACGTGGGCAT | -0.21 kcal/mol
AAGGGCACGTGGTGCA | -0.35 kcal/mol
GCGAGCACGTGTAGGG | -0.24 kcal/mol
CGTGGCACGTGTATAT | -0.09 kcal/mol
AGCAACACGTGGTGTG | -0.08 kcal/mol
ATGGACACGTGATGTT | 0.03 kcal/mol
TTGCGCACGTGGGGAT | -0.2 kcal/mol
GAGGGCACGTGTCAGT | -0.13 kcal/mol
GGGGACACGTGGTGCC | -0.1 kcal/mol
ATTGTCACGTGGACTG | 0.19 kcal/mol
GGTTTCACGTGGCTGA | 0.43 kcal/mol
GGGCGCACGTGAAGGG | 0.15 kcal/mol
ATTTACACGTGTGTAT | 0.13 kcal/mol
TTAAGCACGTGTCAGT | -0.12 kcal/mol
TGGTTCACGTGTGGGA | 0.37 kcal/mol
AGTTGCACGTGCATAT | -0.06 kcal/mol
TGTGTCACGTGTTATA | 0.11 kcal/mol
ATAGTCACGTGCAGTG | -0.1 kcal/mol
CTGGTCACGTGTGGTG | 0.04 kcal/mol
TTGGGCACGTGTGGGA | 0.01 kcal/mol
ATTGTCACGTGATCTT | 0.1 kcal/mol
TTGACCACGTGTGTTG | -0.15 kcal/mol
AAAGTCACGTGTTAAT | 0.19 kcal/mol
TTTATCACGTGACGTA | 0.32 kcal/mol

Sequence | relative binding free energy
AGCGTCACGTGGATAG | 0.22 kcal/mol
GGCGGCACGTGGAGGT | -0.03 kcal/mol
TATTACACGTGGTCGT | 0.05 kcal/mol
GGCGACACGTGCGTGT | -0.1 kcal/mol
GAACTCACGTGGGGGG | 0.13 kcal/mol
GTGGTCACGTGGGGCA | -0.06 kcal/mol
ATTTTCACGTGGTTTT | 0.34 kcal/mol
GCCTTCACGTGTTAGG | 0.42 kcal/mol
ACGAGCACGTGATTGT | 0.11 kcal/mol
GAGTGCACGTGAGCAT | 0.37 kcal/mol
ACTATCACGTGTGGGG | 0.24 kcal/mol
ATTTTCACGTGATAGT | 0.33 kcal/mol
TTCGTCACGTGAGTAT | 0.26 kcal/mol
ACGGTCACGTGGATGC | 0.28 kcal/mol
TGGCGCACGTGATGTA | 0.11 kcal/mol
TGAGTCACGTGAAGCG | 0.37 kcal/mol
GGCTGCACGTGGAGGG | -0.06 kcal/mol
AATATCACGTGTGAGC | 0.26 kcal/mol
TTGATCACGTGTCAGT | 0.06 kcal/mol
GTGGTCACGTGTGACT | 0.22 kcal/mol
TTGATCACGTGGCGTA | 0.05 kcal/mol
CGATACACGTGTGTGA | 0.22 kcal/mol
